Holding throughout (assay): Primary Screen for Target Class Profiling of Small Molecule Inhibitors of Methyltransferases
For assay [1], the target named is Glycine N-methyltransferase (Homo sapiens) (UniProt Q14749). Conditions: purified enzyme, MTase-Glo SAH luminescence; measured here: GNMT inhibition; at 40 µM; stronger effect = lower value. In a few lines: (§1)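 Each enzyme was assayed with SAM and its substrate. SAH formation detected by MTase-Glo luminescence; single-point 40 uM screen[…].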
For assay [2], the target named is Guanidinoacetate N-methyltransferase (Homo sapiens) (UniProt Q14353). The note with it: purified enzyme, MTase-Glo SAH luminescence; measured here: GAMT inhibition; at 40 µM; stronger effect = lower value. In a few lines:
as §1

Assay [3] deals with Histamine N-methyltransferase (Homo sapiens) (UniProt P50135). Conditions: purified enzyme, MTase-Glo SAH luminescence; measured here: HNMT inhibition; at 40 µM; stronger effect = lower value. In a few lines: as §1
Assay [4] concerns the target Nicotinamide N-methyltransferase (Homo sapiens) (UniProt P40261). The note with it: purified enzyme, MTase-Glo SAH luminescence; measured here: NNMT inhibition; at 40 µM; stronger effect = lower value. In a few lines: as §1
In assay [5] the target is Phenylethanolamine N-methyltransferase (Homo sapiens) (UniProt P11086). Conditions: purified enzyme, MTase-Glo SAH luminescence; measured here: PNMT inhibition; at 40 µM; stronger effect = lower value. In a few lines: as §1

This is one part of the list. Shown are side measurements of this screen, not its main read-out; they come without a call.
% is set by controls: 0 for no effect and ±100 for the full control effect.

Regarding `CNC(=O)[C@@H]1C[C@H](n2cc(-c3ccc(CN4CC[C@@H](O)C4)cc3)nn2)CN1`, the activity change, negative = inhibition in assay [1] was -3.1%; in assay [2] it was 2.38%; in assay [3], -0.451%; in assay [4], -4.03%; in assay [5], -3.37%.

Turning to `CCOc1ccc(-n2c([C@@H](C)N(Cc3cccnc3)C(=O)Cc3ccc(OC(F)(F)F)cc3)nc3ncccc3c2=O)cc1`, the activity change, negative = inhibition in assay [1] was -2.45%; in assay [2], 17.7%; in assay [3], 1.54%; in assay [4], -10.5%; in assay [5], 0.107%.

For the compound `NC(N)=NC(=O)c1nc(Cl)c(N)nc1N`, the activity change, negative = inhibition in assay [1] was -4.71%; in assay [2], 7.13%; in assay [3], 4.26%; in assay [4] it was -7.09%; in assay [5], -1.84%.

On to `CC1CCCC(NC(=O)C2(C)Cn3c(cc4occc43)C(=O)N2Cc2ccco2)C1C` (stereo not given), for which the activity change, negative = inhibition in assay [1] is 1.82%; in assay [2], -30.9%; in assay [3], 0.95%; in assay [4] it was -1.44%; in assay [5] it was -2.6%.

As to `CCOC(=O)C1CCN(S(=O)(=O)c2ccc3c(c2)n(C)c(=O)n3C)CC1`, the activity change, negative = inhibition in assay [1] stood at 12.5%; in assay [2] it was 0%; in assay [3], 6.91%; in assay [4] it was 2.82%; in assay [5], 1.74%.

Turning to `C/C=C(\C)C(=O)OCC1OC(OC2OC(CO)C(O)C(O)C2O)C(O)C(O)C1O` (stereo not given), the activity change, negative = inhibition in assay [1] is 4.89%; in assay [2] it was 4.93%; in assay [3] it was 10.2%; in assay [4] it was -6.5%; in assay [5] it was -0.817%.

With `CC(C)CCNC(=O)c1cc2n(n1)CC(C)(C(=O)NC1CCCC1)N(C)C2=O` (stereo not given), the activity change, negative = inhibition in assay [1] is 2.62%; in assay [2], 2.86%; in assay [3] it was -0.73%; in assay [4] it was -0.14%; in assay [5] it was 1.01%.

With `COCCNC(=O)C[C@@H]1C[C@@H](C(C)C)[C@H](CNC(=O)c2cnccn2)C=C1C`, the activity change, negative = inhibition is -7.29% in assay [1]; -5.24% in assay [2]; -1.85% in assay [3]; -11.2% in assay [4]; 7.24% in assay [5].

Turning to `CC1CCCC(NC(=O)C2(C)Cn3c(cc4sccc43)C(=O)N2Cc2cccs2)C1C` (stereo not given), the activity change, negative = inhibition in assay [1] is -1.65%; in assay [2], 3.54%; in assay [3], -1.49%; in assay [4], -11.3%; in assay [5], -0.925%.

Turning to `Nc1ncnc2c1ncn2[C@H]1O[C@@H](C(=O)N2CCN(CC(=O)Nc3cccc4c3CNC4=O)CC2)[C@H](O)[C@@H]1O`, the activity change, negative = inhibition was -74.4% in assay [1]; -13.8% in assay [2]; -9.77% in assay [3]; -21.3% in assay [4]; -26.2% in assay [5].

Turning to `CC[C@H]1OC(=O)[C@H](C)[C@@H](O[C@H]2C[C@@](C)(OC)[C@@H](O)[C@H](C)O2)C(C)[C@@H](O[C@@H]2O[C@H](C)C[C@H](N(C)C)[C@H]2O)[C@](C)(O)C[C@@H](C)CN(C)[C@H](C)[C@@H](O)[C@]1(C)O` (stereo not given in full), the activity change, negative = inhibition is -1.07% in assay [1]; 2.97% in assay [2]; 8.24% in assay [3]; -13.3% in assay [4]; 2.07% in assay [5].

With `CCN1C(=O)c2cc3ccccc3n2CC1(C)C(=O)NCC(=O)NCc1cccc(F)c1` (stereo not given), the activity change, negative = inhibition in assay [1] was -12.3%; in assay [2], -1.28%; in assay [3] it was -10.7%; in assay [4], -12.5%; in assay [5], -9.14%.

As for `CC(=O)N1CCC([C@@H]2CN(Cc3cccnc3)C[C@H]2CO)CC1`, the activity change, negative = inhibition in assay [1] was -1.92%; in assay [2], 1.97%; in assay [3] it was 0.602%; in assay [4], -2.99%; in assay [5] it was -1.34%.

On to `O=C(c1cccc([N+](=O)[O-])c1)N1CCc2c(c3ccccc3n2CC2CC2)C1`, for which the activity change, negative = inhibition in assay [1] is -15.3%; in assay [2] it was -1.27%; in assay [3], -9.41%; in assay [4], -7.44%; in assay [5], -0.85%.

As to `O=C(Cc1ccccc1)N1CCCC1c1nc(CCOCC2CC2)no1` (stereo not given), the activity change, negative = inhibition in assay [1] was -2.47%; in assay [2], -0.469%; in assay [3], -0.721%; in assay [4] it was -9.35%; in assay [5], -1.54%.

As for `Cc1cc(OC2CN([S+](=O)([O-])c3cccs3)C2)ccc1F`, the activity change, negative = inhibition in assay [1] is -11.6%; in assay [2] it was -15.4%; in assay [3], -36.3%; in assay [4], -24.3%; in assay [5], -20.7%.

Take `COc1ccccc1OCCNC(=O)c1cn2ccnc(-c3ccc(C)cc3)c2n1`: the activity change, negative = inhibition in assay [1] is -3.1%; in assay [2], -8.02%; in assay [3] it was -1.23%; in assay [4], -7.17%; in assay [5], 2.6%.

Take `CC(=O)NC1(C)CCN(Cc2cnc(-c3ccc4c(ccn4C)c3)s2)CC1`: the activity change, negative = inhibition in assay [1] was -9.25%; in assay [2], -10.2%; in assay [3], -8.48%; in assay [4], -16.8%; in assay [5], -13.5%.

For the compound `CCCNC(=O)N1CCOC[C@H](Oc2ccc(OC)cc2)C1`, the activity change, negative = inhibition in assay [1] is -2.55%; in assay [2], -5.84%; in assay [3], -14.9%; in assay [4] it was -17.5%; in assay [5] it was -7.71%.

Turning to `CCCC1c2cccn2CCN1C(=O)Nc1ccc(C)cc1Cl` (stereo not given), the activity change, negative = inhibition in assay [1] was 1.48%; in assay [2] it was 1.25%; in assay [3], -32.6%; in assay [4] it was 1.14%; in assay [5], 10.1%.

For `Cc1ccc(Cn2c(=O)c3ccccc3n3c(=O)n(CC(=O)Nc4ccc(C)cc4Cl)nc23)cc1`, the activity change, negative = inhibition in assay [1] turned out to be 3.97%; in assay [2], 0%; in assay [3], 8.57%; in assay [4], 5.54%; in assay [5], 4.13%.

`COCCNC(=O)C1CCc2sc(C(=O)N(C)C)cc2C1` (stereo not given): the activity change, negative = inhibition in assay [1] was -4.92%; in assay [2], -2.04%; in assay [3], -0.812%; in assay [4], -1.98%; in assay [5], 1.01%.

As for `c1ccc(CN2CCC(Cc3ccc(CN4CCCC4)cc3)CC2)nc1`, the activity change, negative = inhibition in assay [1] was -11.9%; in assay [2] it was -3.05%; in assay [3], -49.4%; in assay [4], -4.84%; in assay [5] it was -38.3%.

For the compound `CC1(C(=O)NCc2ccccc2)Cn2c(nc3ccccc32)C(=O)N1Cc1ccccc1Cl` (stereo not given), the activity change, negative = inhibition in assay [1] was -0.3%; in assay [2] it was 5.35%; in assay [3], 2.19%; in assay [4] it was 0.119%; in assay [5] it was -0.658%.

Regarding `Brc1cccc(-c2nnn3c2nc(NCc2ccccc2)c2ccccc23)c1`, the activity change, negative = inhibition is -4.64% in assay [1]; -3.57% in assay [2]; -12.6% in assay [3]; -11.4% in assay [4]; -13.9% in assay [5].

Regarding `Cn1c(=O)c2ccc(C(=O)NC3CCCC3)cc2n2c(=O)n(CC(=O)Nc3ccc(Cl)cc3)nc12`, the activity change, negative = inhibition in assay [1] was 1.47%; in assay [2], -1.04%; in assay [3] it was 2.42%; in assay [4] it was -5.49%; in assay [5], -1.29%.

With `CC(=O)O[C@@H]1[C@@H](O)[C@H](C)O[C@@H](O[C@H]2[C@@H]3C=CO[C@@H](O[C@@H]4O[C@H](CO)[C@@H](O)[C@H](O)[C@H]4O)[C@@H]3[C@@]3(CO)O[C@@H]23)[C@@H]1OC(=O)/C=C/c1ccccc1`, the activity change, negative = inhibition in assay [1] is 0.814%; in assay [2], 2.19%; in assay [3] it was 3.3%; in assay [4] it was -8.13%; in assay [5] it was -1.02%.

As for `CC1(C(=O)NCc2ccccc2)Cn2c(ccc2-c2ccco2)C(=O)N1Cc1ccccc1F` (stereo not given), the activity change, negative = inhibition is 1.04% in assay [1]; 0% in assay [2]; 5.4% in assay [3]; 0.265% in assay [4]; -0.403% in assay [5].

Values taken from PubChem BioAssay AID1745853 (National Center for Advancing Translational Sciences (NCATS), 2022).
